Test results from PubChem BioAssay AID588342 (National Center for Advancing Translational Sciences (NCATS), 2011).
The whole screen tested about 360,000 compounds, of which about 25,000 (6.9%) were called active. The inconclusive results got no clear call from the source; some entries with a clear call stand among them for comparison. Calls come from the whole dose curve; as a rule, active = well fitted inhibition curve with a large enough effect; inconclusive = small, poorly fitted or top-dose-only effect; inactive = flat fitted curve, though single readings scatter. A potency beside an inconclusive call is a rough fit, not a confirmed value.

Biological target: Luciferin 4-monooxygenase (Photinus pyralis) (UniProt P08659)
Assay: qHTS profiling assay for firefly luciferase inhibitor/activator using purifed enzyme and Km concentrations of substrates (counterscreen for miR-21 project); note: nearly all actives have a fitted effect of over 55% in size;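 for activity change, negative = inhibition: plate controls were vehicle for no effect and reference inhibitor for full effect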
Details: purified FLuc, luminescence inhibition; activity change, negative = inhibition: at 57.5 µM (top of the series)
Outline: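 Biochemical qHTS of compounds, final roughly 60 µM downward over six points, against 10 nM purified firefly luciferase using Km concentrations of substrates (10 uM D-luciferin, 10 uM ATP) in Tris acetate pH 7.5 buffer; luminescence output.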
Potency is the fitted concentration of half-maximal effect; tags give direction and shape of the fitted curve.

Sequence of UniProt P08659 (P08659 whole entry, looked up): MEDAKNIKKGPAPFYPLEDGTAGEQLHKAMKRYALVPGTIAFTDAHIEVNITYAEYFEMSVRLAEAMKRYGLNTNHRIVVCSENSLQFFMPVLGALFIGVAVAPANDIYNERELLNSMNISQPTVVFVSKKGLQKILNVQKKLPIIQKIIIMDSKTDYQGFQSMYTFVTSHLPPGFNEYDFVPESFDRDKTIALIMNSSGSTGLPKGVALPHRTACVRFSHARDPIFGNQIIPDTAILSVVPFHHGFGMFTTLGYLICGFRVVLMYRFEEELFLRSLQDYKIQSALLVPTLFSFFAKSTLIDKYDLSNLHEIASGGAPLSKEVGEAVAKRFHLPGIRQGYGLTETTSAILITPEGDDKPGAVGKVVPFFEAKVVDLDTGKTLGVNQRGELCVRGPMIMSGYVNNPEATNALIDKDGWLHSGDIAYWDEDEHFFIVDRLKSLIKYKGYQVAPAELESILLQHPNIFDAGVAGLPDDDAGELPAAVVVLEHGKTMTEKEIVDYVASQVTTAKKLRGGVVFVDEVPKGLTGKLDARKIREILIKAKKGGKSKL

| SMILES | Potency | activity change, negative = inhibition |
| --- | --- | --- |
| Cc1cccc(C(=O)Nc2cccc(C(=O)OCc3cc(=O)n4nc(C5CC5)sc4n3)c2)c1 | inconclusive: 30.1 µM [inhibitor, partial curve, poor fit] |  |
| N#Cc1ccccc1NC(=O)C(=O)NCC(c1cccnc1)N1CCN(c2ccccc2)CC1 (stereo not given) | inconclusive: 23.9 µM [inhibitor, single point] |  |
| O=C(NCC1CCCCC1)C1(CC2CC(c3ccc(Cl)cc3)=NO2)CCNCC1 (stereo not given) | inconclusive: 30.1 µM [inhibitor, partial curve, poor fit] |  |
| c1cncc(-c2nc(Oc3ccc(-c4nnco4)cc3)c3c4c(sc3n2)CCCC4)c1 | inconclusive: 26.9 µM [inhibitor, single point] |  |
| O=[N+]([O-])c1ccc(C[n+]2cccc3ccc4cccnc4c32)cc1 |  | inactive: -0.764% |
| Cc1ccc(OCC(=O)Nc2ccc(-c3nc4ccc(C)cc4o3)cc2)cc1 |  | inactive: -1.97% |
| O=C(NCc1ccco1)c1cc(-c2ccc(F)cc2)on1 | inconclusive: 3.38 µM [inhibitor, partial curve, poor fit] |  |
| N#CCC(=O)Nc1ccc(C(=O)Nc2cccnc2)cc1 |  | inactive: 0.369% |
| O=S(=O)(NC1CCSc2ccccc21)c1ccc(Cl)nc1 (stereo not given) |  | inactive: -0.168% |
| CN1C(=O)/C(=N/OC(=O)c2ccccc2Br)c2ccccc21 | inconclusive: 37.9 µM [inhibitor, partial curve, poor fit] |  |
| COC(=O)c1cn(CCOc2ccccc2F)c2ccccc12 | inconclusive: 33.8 µM [inhibitor, single point] |  |
| COc1ccccc1CNC(=O)CN1c2cccc3cccc(c23)S1(=O)=O | active: 23.9 µM |  |
| CCn1c(SCC(=O)N2CCOCC2)nc2oc3c(Cl)cc(Cl)cc3c(=O)c2c1=O | inconclusive: 26.9 µM [inhibitor, single point] |  |
| CN(C(=O)c1cc2c(s1)-c1ccccc1S(=O)(=O)C2)c1ccccc1F | inconclusive: 37.9 µM [inhibitor, single point] |  |
| Cc1ccccc1C(=O)Nc1ccc(C(=O)N/N=C/c2ccc(O)c(Br)c2)cc1 | inconclusive: 21.3 µM [inhibitor, partial curve, poor fit] |  |
| Cc1nnc(SC(C)C(=O)Nc2ccc3c(c2)OCCO3)s1 (stereo not given) | inconclusive: 26.9 µM [inhibitor, partial curve, poor fit] |  |
| O=C(c1c[nH]c2ccccc12)N1CCN(Cc2ccccc2)CC1 | active: 21.3 µM |  |
| CCOC(=O)c1nn(-c2ccc(Cl)cc2)cc1O | active: 10.7 µM |  |
| CCOC(=O)c1[nH]c(C)c(C(=O)C(C)C)c1C | inconclusive: 26.9 µM [inhibitor, single point] |  |
| COc1ccc(C(=O)Nc2ccc(-c3cc(C(F)(F)F)nn3-c3ccccc3)cc2)cc1OC |  | inactive: -6.17% |
| C=CCNC(=O)c1cc(-c2ccccc2O)on1 | inconclusive: 26.9 µM [inhibitor, single point] |  |
| Cc1nc2ccc(NC(=O)c3ccc(Br)o3)cc2s1 | active: 15.1 µM |  |
| Oc1cccc(NC(=S)N=Nc2c(O)[nH]c3ccccc23)c1 | active: 19 µM |  |

| SMILES | Potency | activity change, negative = inhibition |
| --- | --- | --- |
| CC(=O)N1CCCc2cc(S(=O)(=O)NCc3ccc(OC(C)C)cc3)ccc21 |  | inactive: 3.32% |
| COc1ccc(-c2nn(-c3ccc(F)cc3F)c3c2cnc2ccc(F)cc23)cc1 |  | inactive: 0.0923% |
| CCCCN=C1NN=C(c2cc3ccccc3o2)CS1 | inconclusive: 30.1 µM [inhibitor, single point] |  |
| NS(=O)(=O)c1cccc(NC(=O)c2cccc(-c3ccc(O)cc3)c2)c1 | active: 16.9 µM |  |
| CSc1ccccc1NC(=O)CO/N=C(\C)c1cc2ccccc2o1 | inconclusive: 21.3 µM [inhibitor, single point] |  |
| O=c1oc(CCCO)cc2ccc(/C=C/c3cccc([N+](=O)[O-])c3)cc12 | inconclusive: 1.2 µM [inhibitor, partial curve] |  |
| CCc1ccc(-n2nc(CO)c(C(=O)NCCCCc3ccccc3)n2)cc1 | inconclusive: 10.7 µM [inhibitor, partial curve] |  |
| CN(Cc1ccccc1)C1=CC(=[N+]2CCCC2)CC(C)(C)C1 |  | inactive: 2.57% |
| O=C(CCNC(=O)c1ccccc1)Nc1nc2ccccc2s1 | inconclusive: 20 µM [inhibitor, partial curve, poor fit] |  |
| CCc1cccc(NC(=O)c2coc(=O)c3ccccc23)c1 | active: 10.7 µM |  |
| COC(=O)c1ccc(Cl)cc1NC(=O)N1CCC(CN2CCC(C)CC2)CC1 |  | inactive: -3.89% |
| Cc1cc(C(=O)CCC(=O)Nc2ncccc2O)c(C)s1 |  | inactive: -4.93% |
| COc1cccc(CNC(=O)c2cc3ccccn3n2)c1 | inconclusive: 33.8 µM [inhibitor, single point] |  |
| O=C(CSc1nnc(COc2ccc(Cl)cc2Cl)o1)Nc1ccccn1 | inconclusive: 23.9 µM [inhibitor, partial curve] |  |
| NS(=O)(=O)c1ccc(NC2=CC(=O)C(=O)c3ccccc32)cc1 |  | inactive: -7.94% |
| CCOc1ccc(NC(=S)NNC(=S)Nc2cccc(C(F)(F)F)c2)cc1 | inconclusive: 21.3 µM [inhibitor, partial curve, poor fit] |  |
| CN1CCN(c2nnc(-c3cccs3)c3ccccc23)CC1 | inconclusive: 37.9 µM [inhibitor, partial curve, poor fit] |  |
| Cc1ccc(OCCC(=O)Nc2ccc3c(c2)OCCCO3)cc1 | inconclusive: 37.9 µM [inhibitor, partial curve, poor fit] |  |
| Cc1ccc(S(=O)(=O)N2CCN(C(=O)c3ccc4ccccc4n3)CC2)c(C)c1 | inconclusive: 22.4 µM [inhibitor, partial curve, poor fit] |  |
| COc1ccc(/C=N/NC(=S)Nc2cc(S(=O)(=O)N3CCOCC3)ccc2N2CCOCC2)cc1O | inconclusive: 37.9 µM [inhibitor, partial curve, poor fit] |  |
| CCSc1nnc2nc3[nH]c4c(C)cccc4c3nn12 | inconclusive: 23.9 µM [inhibitor, partial curve] |  |
| O=c1oc2ccccc2c2c1C1O[C@](c3ccsc3)(Cc3c1ccc1ccccc31)O2 | inconclusive: 3.89 µM [inhibitor, single point] |  |
